Experimental data from the supplement of paper PMC10126150.
Sequences with one replicate were seen in a single cluster, so their values are uncertain.

system: ATP; assay: switch fluorescence ratio, 500 uM ATP over buffer (Cy3 cluster intensity, sum of 5 cycles each) (fold (ratio)); higher = stronger signal-on switching upon ATP binding; sequences stand for … in TCGTCGGCAGCGTCAGATGTGTATAAGAGACAGTTTTTTTTTTTTTTTTTTTTTTTTT…TC; conditions: aptamer strand: ATP DNA aptamer (quencher-CACCTGGGGGAGTATTGCGGAGGAAGG + anchor), 100 nM annealed; ATP concentration: 500 uM; one replicate
Summary of the method: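 For every switch-domain sequence, the fluorescence ratio is the mean of per-cluster values, each being summed target-cycle Cy3 intensity over summed buffer-cycle Cy3 intensity. Clusters outside 100-1000 RFU were excluded. On a modified Illumina MiSeq flow-cell, the Cy3-labelled switching-strand clusters were annealed to 100 nM quencher-labelled ATP aptamer, imaged in selection buffer and then after 15 min with 500 uM ATP at 22 °C. Five such cycles were run, with NaOH stripping and re-annealing between them.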
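Also: ATP exposure 15 min at 22 °C before imaging.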

Sequence	switch fluorescence ratio
TTAGTCGGGC	0.985
TTAGTGAATG	0.964
TTAGTGAGCA	0.982
TTAGTGATCA	1.08
TTAGTGGGAT	0.986
TTAGTTCCAG	0.984
TTAGTTCGCT	0.996
TTATAAAGGG	1.02
TTATAAGGCT	1
TTATAATAAT	1.04
TTATACCGTA	1.1
TTATACCTAA	1.04
TTATACTAGT	0.972
TTATACTTTT	1.02
TTATAGTAGT	1.05
TTATATCCAC	1.11
TTATATGGAT	0.98
TTATATTATC	0.998
TTATCAAAGT	1.02
TTATCACTAA	1.03
TTATCATTTT	0.957
TTATCCCTA	0.975
TTATCCTCTG	1.08
TTATCGAGAG	1
TTATCGGGGG	1.05

Sequence	switch fluorescence ratio
TTATCGTACG	1.03
TTATCTAATA	1.01
TTATCTCGAT	0.997
TTATCTCTTT	0.991
TTATCTGTAC	1.09
TTATCTTTGG	0.983
TTATGAATTC	0.997
TTATGACTAG	0.984
TTATGATCTC	1.04
TTATGATGTT	1.01
TTATGCAATT	1.18
TTATGCTAG	1.02
TTATGCTCGA	1
TTATGGGATG	0.985
TTATGGTACT	1.06
TTATGGTAT	1.01
TTATGGTCCT	1.05
TTATGGTTCT	0.976
TTATGTGGTC	0.946
TTATGTGTCA	1.02
TTATGTTGCA	0.992
TTATTAAGTA	0.989
TTATTAGGTT	1
TTATTATACC	1.04
TTATTCTAAA	0.994

Sequence	switch fluorescence ratio
TTATTCTCTC	1.04
TTATTGCGTT	1.03
TTATTGCTGG	0.972
TTATTGTCAG	1.07
TTATTTCGAC	0.995
TTATTTGTAA	0.995
TTCAAGACGA	1.17
TTCAAGATTC	1
TTCAAGATTG	0.992
TTCAAGTATT	1.03
TTCAATCTCA	1.01
TTCACAAGTG	0.977
TTCACATTAG	1.05
TTCACCGTGA	1.35
TTCACGGGGT	1
TTCACGTTAC	1.54
TTCACGTTCT	1.03
TTCACTCTTA	0.991
TTCACTTTCA	1.03
TTCAGAACAA	1.12
TTCAGAGGTG	1.16
TTCAGCGGGC	1.09
TTCAGGAAGA	1.03
TTCAGGCTGC	0.998
TTCAGGTAGT	0.958

Sequence	switch fluorescence ratio
TTCAGTCAGG	0.996
TTCAGTTGTA	1.01
TTCATAAGCC	0.986
TTCATAGTTG	0.963
TTCATCAAAG	1.06
TTCATGCATA	1.05
TTCATGCTG	0.961
TTCATTACAA	1
TTCCACTCGT	0.979
TTCCAGGGGT	5.28
TTCCAGGTGT	1.06
TTCCATAGTC	1.01
TTCCCAATCT	1.18
TTCCCAATGT	4.37
TTCCCACAAT	1.26
TTCCCAGGG	1.92
TTCCCAGTGG	1.19
TTCCCATAGC	1.17
TTCCCCACAT	1.18
TTCCCGACC	1.28
TTCCCGCTTT	1.34
TTCCCGTCAT	1.06
TTCCCTGGGC	1.04
TTCCGAAGAG	1.54
TTCCGATGGC	1.13

Sequence	switch fluorescence ratio
TTCCGCCTAG	1.64
TTCCGCTCGA	2.01
TTCCGGACGT	1.08
TTCCGGCCAG	1.03
TTCCGTAATG	2.55
TTCCTGATTC	1.42
TTCCTGTAGT	0.993
TTCCTTTAG	1.21
TTCCTTTGGC	0.983
TTCGAACCTA	0.994
TTCGAAGCTT	1.07
TTCGAATAAA	1.01
TTCGACATCA	0.99
TTCGACCCGA	1.03
TTCGACCTGT	0.995
TTCGACGAGT	1.02
TTCGAGAACA	0.97
TTCGAGCTCC	1.04
TTCGAGTTTC	0.975
TTCGCAGAAT	1.17
TTCGCAGATG	1.02
TTCGCATATC	1.74
TTCGCCAGAC	0.977
TTCGCCCGGT	0.975
TTCGCCCGTG	1.04

Sequence	switch fluorescence ratio
TTCGCCGG	0.953
TTCGCGGCGC	0.995
TTCGCGGTAC	2.27
TTCGCTAGTT	0.991
TTCGCTCGGC	1
TTCGCTCGGG	0.998
TTCGGAAAC	1.11
TTCGGAAGAC	1.14
TTCGGAGATC	0.991
TTCGGAGCTC	1.11
TTCGGATTGT	1.02
TTCGGCCTGC	1.01
TTCGGCCTTC	1.11
TTCGGGCGGT	2.09
TTCGGGCTTT	0.982
TTCGGTCCGA	1
TTCGTAAGGC	1.18
TTCGTACTCG	0.986
TTCGTAGAT	1.03
TTCGTATAT	1.03
TTCGTATTGG	0.97
TTCGTCACCC	0.952
TTCGTCACGC	1.03
TTCGTCGTAG	1
TTCGTGAACT	0.978

Sequence	switch fluorescence ratio
TTCGTGCTCC	1.04
TTCGTGGATG	1.02
TTCGTTACAC	1.11
TTCGTTCTGC	1.03
TTCGTTTCAG	1.01
TTCTAACCAT	1.02
TTCTAAGTG	1.02
TTCTACCTGG	0.98
TTCTACGCTT	3.74
TTCTAGGAGC	0.975
TTCTAGTCGG	1.02
TTCTATATCG	0.945
TTCTATCCAA	0.983
TTCTATTTCA	0.993
TTCTCATCGT	0.972
TTCTCCTCG	1.04
TTCTCCTGGA	0.997
TTCTCCTTCT	1.06
TTCTCGCACG	1.15
TTCTCGGAGT	0.983
TTCTCTATCC	1
TTCTGATATT	1
TTCTGCCTG	1.01
TTCTGGATGA	1.02
TTCTGGGATA	1.01

Sequence	switch fluorescence ratio
TTCTGGTGGT	0.972
TTCTGTCGCA	1.35
TTCTGTGAAC	2.36
TTCTGTGAGT	1.04
TTCTGTGG	0.974
TTCTGTGTCT	0.997
TTCTTAATGG	1.05
TTCTTATAC	1.05
TTCTTATCCT	1.07
TTCTTCGGAA	2.88
TTCTTCGTCT	0.972
TTCTTGAGTC	0.999
TTCTTGTTAA	1.03
TTCTTGTTGT	0.974
TTCTTTAGGT	1.02
TTCTTTATGA	0.968
TTCTTTCCTG	0.985
TTCTTTTCCT	1.19
TTCTTTTCTG	1.02
TTGAAACCGC	1.48
TTGAAAGCCA	1.04
TTGAAAGGAA	0.976
TTGAAATAAA	1.03
TTGAAATCAG	1.02
TTGAAATTCC	1.04
